Experimental data as given in the supplement of paper PMC12458215.
± gives the uncertainty stated by the source.

The sequences below were run on HEK293T (assay: plasma membrane surface immunostaining intensity (anti-HA, deep receptor scanning) (arbitrary fluorescence units); higher = higher plasma membrane expression). Conditions: GPCR class: A.

Row | Sequence | plasma membrane surface immunostaining intensity
1 | MSMNNSKQLVSPAAALLSNTTCQTENRLSVFFSVIFMTVGILSNSLAIAILMKAYQRFRQKSKASFLLLASGLVITDFFGHLINGAIAVFVYASDKEWIRFDQSNVLCSIFGICMVFSGLCPLLLGSVMAIERCIGVTKPIFHSTKITSKHVKMMLSGVCLFAVFIALLPILGHRDYKIQASRTWCFYNTEDIKDWEDRFYLLLFSFLGLLALGVSLLCNAITGITLLRVKFKSQQHRQGRSHHLEMVIQLLAIMCVSCICWSPFLVTMANIGINGNHSLETCETTLFALRMATWNQILDPWVYILLRKAVLKNLYKLASQCCGVHVISLHIWELSSIKNSLKVAAISESPVAEKSAST [PTGFR] | 942 ± 150
2 | MSPLNQSAEGLPQEASNRSLNATETSEAWDPRTLQALKISLAVVLSVITLATVLSNAFVLTTILLTRKLHTPANYLIGSLATTDLLVSILVMPISIAYTITHTWNFGQILCDIWLSSDITCCTASILHLCVIALDRYWAITDALEYSKRRTAGHAATMIAIVWAISICISIPPLFWRQAKAQEEMSDCLVNTSQISYTIYSTCGAFYIPSVLLIILYGRIYRAARNRILNPPSLYGKRFTTAHLITGSAGSSLCSLNSSLHEGHSHSAGSPLFFNHVKIKLADSALERKRISAARERKATKILGIILGAFIICWLPFFVVSLVLPICRDSCWIHPALFDFFTWLGYLNSLINPIIYTVFNEEFRQAFQKIVPFRKAS [HTR1D] | 922 ± 86
3 | MSQQNTSGDCLFDGVNELMKTLQFAVHIPTFVLGLLLNLLAIHGFSTFLKNRWPDYAATSIYMINLAVFDLLLVLSLPFKMVLSQVQSPFPSLCTLVECLYFVSMYGSVFTICFISMDRFLAIRYPLLVSHLRSPRKIFGICCTIWVLVWTGSIPIYSFHGKVEKYMCFHNMSDDTWSAKVFFPLEVFGFLLPMGIMGFCCSRSIHILLGRRDHTQDWVQQKACIYSIAASLAVFVVSFLPVHLGFFLQFLVRNSFIVECRAKQSISFFLQLSMCFSNVNCCLDVFCYYFVIKEFRMNIRAHRPSRVQLVLQDTTISRG [GPR55] | 6280 ± 65
4 | MSVKPSWGPGPSEGVTAVPTSDLGEIHNWTELLDLFNHTLSECHVELSQSTKRVVLFALYLAMFVVGLVENLLVICVNWRGSGRAGLMNLYILNMAIADLGIVLSLPVWMLEVTLDYTWLWGSFSCRFTHYFYFVNMYSSIFFLVCLSVDRYVTLTSASPSWQRYQHRVRRAMCAGIWVLSAIIPLPEVVHIQLVEGPEPMCLFMAPFETYSTWALAVALSTTILGFLLPFPLITVFNVLTACRLRQPGQPKSRRHCLLLCAYVAVFVMCWLPYHVTLLLLTLHGTHISLHCHLVHLLYFFYDVIDCFSMLHCVINPILYNFLSPHFRGRLLNAVVHYLPKDQTKAGTCASSSSCSTQHSIIITKGDSQPAAAAPHPEPSLSFQAHHLLPNTSPISPTQPLTPS [GPR182] | 6320 ± 160
5 | MTEVLWPAVPNGTDAAFLAGPGSSWGNSTVASTAAVSSSFKCALTKTGFQFYYLPAVYILVFIIGFLGNSVAIWMFVFHMKPWSGISVYMFNLALADFLYVLTLPALIFYYFNKTDWIFGDAMCKLQRFIFHVNLYGSILFLTCISAHRYSGVVYPLKSLGRLKKKNAICISVLVWLIVVVAISPILFYSGTGVRKNKTITCYDTTSDEYLRSYFIYSMCTTVAMFCVPLVLILGCYGLIVRALIYKDLDNSPLRRKSIYLVIIVLTVFAVSYIPFHVMKTMNLRARLDFQTPAMCAFNDRVYATYQVTRGLASLNSCVDPILYFLAGDTFRRRLSRATRKASRRSEANLQSKSEDMTLNILPEFKQNGDTSL [P2RY1] | 6180 ± 140
6 | MTNSSSTSTSSTTGGSLLLLCEEEESWAGRRIPVSLLYSGLAIGGTLANGMVIYLVSSFRKLQTTSNAFIVNGCAADLSVCALWMPQEAVLGLLPTGSAEPPADWDGAGGSYRLLRGGLLGLGLTVSLLSHCLVALNRYLLITRAPATYQALYQRRHTAGMLALSWALALGLVLLLPPWAPRPGAAPPRVHYPALLAAAALLAQTALLLHCYLGIVRRVRVSVKRVSVLNFHLLHQLPGCAAAAAAFPGAQHAPGPGGAAHPAQAQPLPPALHPRRAQRRLSGLSVLLLCCVFLLATQPLVWVSLASGFSLPVPWGVQAASWLLCCALSALNPLLYTWRNEEFRRSVRSVLPGVGDAAAAAVAATAVPAVSQAQLGTRAAGQHW [GPR88] | 449 ± 30
7 | MVFAHRMDNSKPHLIIPTLLVPLQNRSCTETATPLPSQYLMELSEEHSWMSNQTDLHYVLKPGEVATASIFFGILWLFSIFGNSLVCLVIHRSRRTQSTTNYFVVSMACADLLISVASTPFVLLQFTTGRWTLGSATCKVVRYFQYLTPGVQIYVLLSICIDRFYTIVYPLSFKVSREKAKKMIAASWVFDAGFVTPVLFFYGSNWDSHCNYFLPSSWEGTAYTVIHFLVGFVIPSVLIILFYQKVIKYIWRIGTDGRTVRRTMNIVPRTKVKTIKMFLILNLLFLLSWLPFHVAQLWHPHEQDYKKSSLVFTAITWISFSSSASKPTLYSIYNANFRRGMKETFCMSSMKCYRSNAYTITTSSRMAKKNYVGISEIPSMAKTITKDSIYDSFDREAKEKKLAWPINSNPPNTFV [GPR19] | 371 ± 34
8 | MVPEPGPTANSTPAWGAGPPSAPGGSGWVAAALCVVIALTAAANSLLIALICTQPALRNTSNFFLVSLFTSDLMVGLVVMPPAMLNALYGRWVLARGLCLLWTAFDVMCCSASILNLCLISLDRYLLILSPLRYKLRMTPLRALALVLGAWSLAALASFLPLLLGWHELGHARPPVPGQCRLLASLPFVLVASGLTFFLPSGAICFTYCRILLAARKQAVQVASLTTGMASQASETLQVPRTPRPGVESADSRRLATKHSRKALKASLTLGILLGMFFVTWLPFFVANIVQAVCDCISPGLFDVLTWLGYCNSTMNPIIYPLFMRDFKRALGRFLPCPRCPRERQASLASPSLRTSHSGPRPGLSLQQVLPLPLPPDSDSDSDAGSGGSSGLRLTAQLLLPGEATQDPPLPTRAAAAVNFFNIDPAEPELRPHPLGIPTN [HTR6] | 2630 ± 860
9 | MWSCSWFNGTGLVEELPACQDLQLGLSLLSLLGLVVGVPVGLCYNALLVLANLHSKASMTMPDVYFVNMAVAGLVLSALAPVHLLGPPSSRWALWSVGGEVHVALQIPFNVSSLVAMYSTALLSLDHYIERALPRTYMASVYNTRHVCGFVWGGALLTSFSSLLFYICSHVSTRALECAKMQNAEAADATLVFIGYVVPALATLYALVLLSRVRREDTPLDRDTGRLEPSAHRLLVATVCTQFGLWTPHYLILLGHTVIISRGKPVDAHYLGLLHFVKDFSKLLAFSSSFVTPLLYRYMNQSFPSKLQRLMKKLPCGDRHCSPDHMGVQQVLA [GPR146] | 210 ± 16
10 | MYNGSCCRIEGDTISQVMPPLLIVAFVLGALGNGVALCGFCFHMKTWKPSTVYLFNLAVADFLLMICLPFRTDYYLRRRHWAFGDIPCRVGLFTLAMNRAGSIVFLTVVAADRYFKVVHPHHAVNTISTRVAAGIVCTLWALVILGTVYLLLENHLCVQETAVSCESFIMESANGWHDIMFQLEFFMPLGIILFCSFKIVWSLRRRQQLARQARMKKATRFIMVVAIVFITCYLPSVSARLYFLWTVPSSACDPSVHGALHITLSFTYMNSMLDPLVYYFSSPSFPKFYNKLKICSLKPKQPGHSKTQRPEEMPISNLGRRSCISVANSFQSQSDGQWDPHIVEWH [HCAR1] | 6459 ± 51
11 | MYSGNRSGGHGYWDGGGAAGAEGPAPAGTLSPAPLFSPGTYERLALLLGSIGLLGVGNNLLVLVLYYKFQRLRTPTHLLLVNISLSDLLVSLFGVTFTFVSCLRNGWVWDTVGCVWDGFSGSLFGIVSIATLTVLAYERYIRVVHARVINFSWAWRAITYIWLYSLAWAGAPLLGWNRYILDVHGLGCTVDWKSKDANDSSFVLFLFLGCLVVPLGVIAHCYGHILYSIRMLRCVEDLQTIQVIKILKYEKKLAKMCFLMIFTFLVCWMPYIVICFLVVNGHGHLVTPTISIVSYLFAKSNTVYNPVIYVFMIRKFRRSLLQLLCLRLLRCQRPAKDLPAAGSEMQIRPIVMSQKDGDRPKKKVTFNSSSIIFIITSDESLSVDDSDKTNGSKVDVIQVRPL [OPN3] | 622 ± 43

Same assay, conditions: GPCR class: C

Row | Sequence | plasma membrane surface immunostaining intensity
12 | MVCEGKRSASCPCFFLLTAKFYWILTMMQRTHSQEYAHSIRVDGDIILGGLFPVHAKGERGVPCGELKKEKGIHRLEAMLYAIDQINKDPDLLSNITLGVRILDTCSRDTYALEQSLTFVQALIEKDASDVKCANGDPPIFTKPDKISGVIGAAASSVSIMVANILRLFKIPQISYASTAPELSDNTRYDFFSRVVPPDSYQAQAMVDIVTALGWNYVSTLASEGNYGESGVEAFTQISREIGGVCIAQSQKIPREPRPGEFEKIIKRLLETPNARAVIMFANEDDIRRILEAAKKLNQSGHFLWIGSDSWGSKIAPVYQQEEIAEGAVTILPKRASIDGFDRYFRSRTLANNRRNVWFAEFWEENFGCKLGSHGKRNSHIKKCTGLERIARDSSYEQEGKVQFVIDAVYSMAYALHNMHKDLCPGYIGLCPRMSTIDGKELLGYIRAVNFNGSAGTPVTFNENGDAPGRYDIFQYQITNKSTEYKVIGHWTNQLHLKVEDMQWAHREHTHPASVCSLPCKPGERKKTVKGVPCCWHCERCEGYNYQVDELSCELCPLDQRPNMNRTGCQLIPIIKLEWHSPWAVVPVFVAILGIIATTFVIVTFVRYNDTPIVRASGRELSYVLLTGIFLCYSITFLMIAAPDTIICSFRRVFLGLGMCFSYAALLTKTNRIHRIFEQGKKSVTAPKFISPASQLVITFSLISVQLLGVFVWFVVDPPHIIIDYGEQRTLDPEKARGVLKCDISDLSLICSLGYSILLMVTCTVYAIKTRGVPETFNEAKPIGFTMYTTCIIWLAFIPIFFGTAQSAEKMYIQTTTLTVSMSLSASVSLGMLYMPKVYIIIFHPEQNVQKRKRSFKAVVTAATMQSKLIQKGNDRPNGEVKSELCESLETNTSSTKTTYISYSNHSI [GRM8] | 6470 ± 80
